Laboratory results: article PMC4336329 (PLoS ONE, 2015)
Screen size: about 310,000 compounds; about 2,200 (0.71%) showed an effect of 50% or more. Effects have a minus sign here. The list shows a part of the results.

What follows are compounds tested against human ether-à-go-go-related gene (hERG) potassium channel (human, UniProt Q12809) (assay: primary screen, population patch clamp on CHO cells stably expressing hERG).
Chain of human ether-à-go-go-related gene (hERG) potassium channel (Q12809 whole entry, looked up): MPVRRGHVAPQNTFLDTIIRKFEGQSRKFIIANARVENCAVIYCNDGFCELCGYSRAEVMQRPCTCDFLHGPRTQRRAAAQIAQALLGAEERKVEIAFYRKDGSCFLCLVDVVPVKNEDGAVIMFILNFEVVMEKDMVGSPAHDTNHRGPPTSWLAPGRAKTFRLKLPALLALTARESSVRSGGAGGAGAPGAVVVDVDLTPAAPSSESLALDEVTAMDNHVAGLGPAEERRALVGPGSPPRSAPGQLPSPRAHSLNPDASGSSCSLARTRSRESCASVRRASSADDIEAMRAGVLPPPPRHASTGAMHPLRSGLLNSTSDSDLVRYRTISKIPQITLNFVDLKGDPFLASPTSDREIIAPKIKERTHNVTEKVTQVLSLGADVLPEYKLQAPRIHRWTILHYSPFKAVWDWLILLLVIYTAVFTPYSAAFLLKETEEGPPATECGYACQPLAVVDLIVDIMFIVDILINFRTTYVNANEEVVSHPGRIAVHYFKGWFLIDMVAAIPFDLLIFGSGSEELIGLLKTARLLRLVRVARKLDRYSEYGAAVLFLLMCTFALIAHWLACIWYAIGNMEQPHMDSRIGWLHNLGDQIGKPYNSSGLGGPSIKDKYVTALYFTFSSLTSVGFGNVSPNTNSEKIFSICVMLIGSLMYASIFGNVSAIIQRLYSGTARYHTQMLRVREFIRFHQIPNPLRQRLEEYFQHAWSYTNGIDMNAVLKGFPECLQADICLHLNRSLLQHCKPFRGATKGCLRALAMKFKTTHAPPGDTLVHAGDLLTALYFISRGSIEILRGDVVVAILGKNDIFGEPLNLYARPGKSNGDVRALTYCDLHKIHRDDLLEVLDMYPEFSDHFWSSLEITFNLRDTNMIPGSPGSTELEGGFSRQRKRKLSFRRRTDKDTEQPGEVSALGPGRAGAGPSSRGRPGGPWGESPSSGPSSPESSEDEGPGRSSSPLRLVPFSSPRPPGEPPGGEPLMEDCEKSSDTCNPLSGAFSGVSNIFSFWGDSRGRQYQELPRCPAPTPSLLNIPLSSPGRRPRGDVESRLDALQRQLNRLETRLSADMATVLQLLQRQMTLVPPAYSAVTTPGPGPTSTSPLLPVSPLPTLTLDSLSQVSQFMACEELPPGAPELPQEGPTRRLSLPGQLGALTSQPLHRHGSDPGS

Compared with `COc1ccc(/C=C/C(=O)OCC(=O)NC2CCCCC2C)c(OC)c1` (stereo not shown), `COc1cc(/C=C/C(=O)OCC(=O)NCc2ccco2)ccc1OCC#N` is higher in “hERG current change (%, negative = inhibition) at 1uM” value: 5.67% for the first, 10.2% for the second.

Compared with `CC(C)c1ccc(NC(=O)NCc2ccc3c(c2)OCO3)cc1`, `CN(C)S(=O)(=O)c1ccc(N2CCOCC2)c(C(=O)NCc2ccc3c(c2)OCO3)c1` is lower in “hERG current change (%, negative = inhibition) at 1uM” value: 11.9% for the first, 5.83% for the second.

First: Cc1cc(OCCCn2ccnc2)cc(C)c1Cl
Second: Cc1cccc(C)c1NC(=S)Nc1ccc(Cl)c(Cl)c1
The “hERG current change (%, negative = inhibition) at 1uM” value of the first is lower: -4.75% for the first, 10.6% for the second.

Going from `CC(=O)c1ccc2c(c1)C1C(Cl)C(Sc3ccccc3[N+](=O)[O-])CC1C(c1ccccc1)N2` (stereo not shown) to `O=C(OCc1nc2ccc(Cl)cc2n1CCO)c1ccccc1C(=O)c1ccccc1`, the “hERG current change (%, negative = inhibition) at 1uM” value rises from -3.01% to 7.18%.

First: Cc1ccc(S(=O)(=O)NNc2ccccc2)cc1
Second: Cc1ccc(S(=O)(=O)ON2C(=O)c3cccc4cccc(c34)C2=O)cc1
The “hERG current change (%, negative = inhibition) at 1uM” value of the first is higher: 14.3% for the first, 5.41% for the second.

Going from `CCN1CCCC1CNC(=O)c1cc2cc(OC)c(OC)cc2[nH]1` (stereo not shown) to `COc1cc2c(cc1OC)CN(C(=O)CNC(=O)c1ccc(OC(F)F)cc1)CC2`, the “hERG current change (%, negative = inhibition) at 1uM” value falls from 16.2% to -22.5%.

Compared with `Cc1csc(NC(=O)COCC(=O)O)c1-c1nc2ccccc2s1`, `CCC(C)(C)NC(=O)CN(C(=O)CCC(=O)Nc1nccs1)c1ccccc1C` is higher in “hERG current change (%, negative = inhibition) at 1uM” value: 4.92% for the first, 13.5% for the second.

Compared with `Cc1sc(C(=O)NCc2cccnc2)c2nc(C)n(CC(=O)NCc3cccnc3)c(=O)c12`, `O=C(Cc1ccc(Cl)cc1)Nc1cccnc1` is higher in “hERG current change (%, negative = inhibition) at 1uM” value: 11% for the first, 11.1% for the second.

First: CC(C)CNC(=S)N1CCC(C(=O)c2ccc3c(c2)OCCO3)CC1
Second: O=C(Nc1ccc2c(c1)OCO2)N1CCCC1
The “hERG current change (%, negative = inhibition) at 1uM” value of the first is lower: 9.85% for the first, 21.5% for the second.

Compared with `CCc1nnc(NC(=O)c2cccc(S(=O)(=O)N3CCCC3)c2)s1`, `CC(=O)N1CCN(S(=O)(=O)c2cccc(C(=O)NC3CCC(C)CC3)c2)CC1` (stereo not shown) is lower in “hERG current change (%, negative = inhibition) at 1uM” value: 17.3% for the first, 13.1% for the second.

Going from `CCn1c2ccccc2c2n[nH]c(=S)nc21` to `COc1ccc(S(=O)(=O)N(C)c2nc3ccccc3n3c(CC(C)C)nnc23)cc1`, the “hERG current change (%, negative = inhibition) at 1uM” value falls from 15.3% to -10.2%.

Compared with `NC(=O)N/N=C1\c2ccccc2-c2c(C(N)=O)cccc21`, `CC(C)CNC(=O)c1cccc2c1-c1ccccc1C2=O` is higher in “hERG current change (%, negative = inhibition) at 1uM” value: 13.1% for the first, 14% for the second.

First: COc1ccc(NC(=O)c2sc(SCc3ccccc3)nc2N)cc1
Second: O=C(COC(=O)Cc1ccccc1)Nc1ccc(F)cc1
The “hERG current change (%, negative = inhibition) at 1uM” value of the first is lower: 13.7% for the first, 18.4% for the second.

First: COc1ccc(N(C(=O)c2ccc(S(=O)(=O)N3CCOCC3)cc2)C2C=CS(=O)(=O)C2)cc1 (stereo not shown)
Second: CC1CCN(S(=O)(=O)c2ccc(C(=O)NC3CCS(=O)(=O)C3)cc2)CC1 (stereo not shown)
The “hERG current change (%, negative = inhibition) at 1uM” value of the first is lower: -14.2% for the first, -4.12% for the second.

First: COc1cccc(/C=N/NC(=O)CCCC(=O)Nc2ccc(Br)cc2)c1
Second: CC(=O)Nc1ccc(C(=O)/C=C/c2ccco2)cc1
The “hERG current change (%, negative = inhibition) at 1uM” value of the first is lower: 5.21% for the first, 7.83% for the second.

Going from `COc1ccccc1N1CCN(C2CCCN(C(=O)c3cscn3)C2)CC1` (stereo not shown) to `COC(=O)c1[nH]c2cccc(OC)c2c1NC(=O)CCN1CCN(c2ccccc2OC)CC1`, the “hERG current change (%, negative = inhibition) at 1uM” value falls from 12.7% to -7.96%.

Compared with `O=C(CN1CCN(C/C=C/c2ccccc2)CC1)NCc1ccccc1`, `O=C(c1oc2ccccc2c1CSCc1ccccc1)N1CCN(c2ncccn2)CC1` is higher in “hERG current change (%, negative = inhibition) at 1uM” value: -53.6% for the first, 11.8% for the second.

Going from `CC(C)CC(C(=O)O)N(Cc1ccccc1)Cc1ccccc1` (stereo not shown) to `COc1ccccc1NC(=O)CSc1nc2ccccc2cc1Cc1ccccc1`, the “hERG current change (%, negative = inhibition) at 1uM” value rises from 12.3% to 14.5%.

First: COC(=O)c1cc(Br)c(=O)n(CCN2CCCCC2)c1
Second: COCCNC(=O)Cn1cc(C(=S)N2CCCCC2)c2ccccc21
The “hERG current change (%, negative = inhibition) at 1uM” value of the first is higher: 20.9% for the first, 10.9% for the second.

First: Cc1nn(Cc2ccc(C(=O)N3c4ccc(F)cc4CCC3C)o2)c(C)c1Br (stereo not shown)
Second: Cc1ccc(-c2ccnc3c(Br)c(C)nn23)cc1
The “hERG current change (%, negative = inhibition) at 1uM” value of the first is lower: 7.41% for the first, 15% for the second.

Compared with `Nn1c(SCC(=O)NC2CCCCC2)nnc1-c1ccccc1`, `Cc1nc2ccccn2c1C(=O)NC1CCCCC1` is lower in “hERG current change (%, negative = inhibition) at 1uM” value: 9.28% for the first, 9.19% for the second.

Going from `O=C(O)C(Cc1cn[nH]n1)=NO` to `Clc1ccc(SCCCCN2CCOCC2)cc1.O=C(O)C(=O)O`, the “hERG current change (%, negative = inhibition) at 1uM” value falls from 9.55% to 5%.

Going from `CCc1nc(N)c(C#N)c(-c2cccnc2)c1C` to `CC1=C(c2ccccc2)CCC1=O`, the “hERG current change (%, negative = inhibition) at 1uM” value falls from 11.8% to 4.36%.

First: Cc1ccc(S(=O)(=O)N2CCCC2C(=O)OCc2nc3ccccc3s2)cc1 (stereo not shown)
Second: Cc1ccc(N(C)C(=O)n2cnc3ccccc32)cc1
The “hERG current change (%, negative = inhibition) at 1uM” value of the first is higher: 8.44% for the first, 7.51% for the second.

Compared with `Cc1ccc(C2CC(c3ccc(F)cc3)Nc3nc(N)nn32)cc1` (stereo not shown), `N#CC(c1ccc(F)cc1)c1ccc(C(=O)c2ccccc2)cc1` (stereo not shown) is lower in “hERG current change (%, negative = inhibition) at 1uM” value: 10.4% for the first, 7.99% for the second.

First: O=c1[nH]c2cc3c(cc2cc1CN(CC1CCCO1)S(=O)(=O)c1ccc(Cl)cc1)OCCO3 (stereo not shown)
Second: Cc1ccc2cc(COC(=O)c3cccc([N+](=O)[O-])c3)c(=O)[nH]c2c1
The “hERG current change (%, negative = inhibition) at 1uM” value of the first is lower: 0.469% for the first, 12.6% for the second.

First: CCOC(=O)C1(CCOC)CCN(Cc2cnc(-c3cccc(C)c3)nc2)CC1
Second: COC(=O)c1cc(S(=O)(=O)NCC2CCN(Cc3cccc(F)c3)CC2)c[nH]1
The “hERG current change (%, negative = inhibition) at 1uM” value of the first is higher: 7.05% for the first, 2.87% for the second.

Compared with `COc1cccc(C(=O)NCC(=O)OCC(=O)Nc2ncc(Cl)cc2Cl)c1`, `O=C(COC(=O)c1ccccn1)Nc1cccc(Cl)c1Cl` is higher in “hERG current change (%, negative = inhibition) at 1uM” value: 5.04% for the first, 13.7% for the second.

Going from `Cc1cccc(NC(=O)Nc2ccc(Oc3c(F)c(F)c(F)c(F)c3F)cc2)c1` to `COc1ccc(-c2c(NC(=O)c3ccco3)oc3c(C)cccc3c2=O)cc1OC`, the “hERG current change (%, negative = inhibition) at 1uM” value rises from 4.95% to 15.6%.

First: CC12CN3CC(C)(CN(C1)C3c1cc(Br)ccc1O)C2=O (stereo not shown)
Second: O=C(Oc1ccc(C(=S)N2CCOCC2)cc1)c1ccc(Br)cc1
The “hERG current change (%, negative = inhibition) at 1uM” value of the first is lower: 9.25% for the first, 17.5% for the second.

Compared with `COc1ccc(CCNC(=O)CSc2nc3ncccc3[nH]2)c(OC)c1`, `CCc1ccc(NC(=O)CSc2nc3ncc(Br)cc3[nH]2)cc1` is higher in “hERG current change (%, negative = inhibition) at 1uM” value: 9.49% for the first, 18.3% for the second.

First: O=C(c1cnc2ccccn2c1=O)N1CCc2ccccc21
Second: O=C(Nc1ccccc1C(=O)O)c1cncc(Br)c1
The “hERG current change (%, negative = inhibition) at 1uM” value of the first is lower: -0.387% for the first, 16.9% for the second.

Going from `COCCCNC(=O)C1CCN(C(=O)Nc2ccc(Cl)cc2)CC1` to `CCOc1ccc(NC(=O)C2CCN(S(=O)(=O)c3ccc4c(c3)N(C(C)=O)CCO4)CC2)cc1`, the “hERG current change (%, negative = inhibition) at 1uM” value rises from 11.2% to 13.8%.

Going from `CCCCc1ccc(S(=O)(=O)NNC(=S)NCc2ccco2)cc1` to `CC(C)(C)OC(=O)NNC(=S)NCc1ccc(Cl)cc1`, the “hERG current change (%, negative = inhibition) at 1uM” value rises from 2.2% to 10.5%.

Compared with `CC(C)C(OC(=O)CN1C(=O)COc2ccccc21)C(=O)NC1CCCCC1` (stereo not shown), `CCOc1ccc(N(CC(=O)NC2CCCC2)C(=O)CCC(=O)Nc2nc(C)cs2)cc1` is higher in “hERG current change (%, negative = inhibition) at 1uM” value: 4.41% for the first, 5.15% for the second.

Going from `O=S(=O)(NCc1ccccn1)c1ccc(Br)s1` to `C/C(=N/O)c1ccccn1`, the “hERG current change (%, negative = inhibition) at 1uM” value falls from 12.1% to 2.69%.

Compared with `N#Cc1ccc[n+](CC(=O)c2ccc(Cl)cc2)c1.[Br-]`, `COc1ccccc1NC(=O)c1ccc(NC(=O)COC(=O)C2CCCCC2)cc1` is higher in “hERG current change (%, negative = inhibition) at 1uM” value: 13.2% for the first, 17.7% for the second.

Compared with `[N-]=[N+]=N[C@@H]1C[C@H](n2ccc(=O)[nH]c2=O)O[C@@H]1CO`, `CN(Cc1cccc(-n2cccn2)c1)C(=O)CCc1nnc(C2CCCCC2)o1` is lower in “hERG current change (%, negative = inhibition) at 1uM” value: 8.18% for the first, 1.1% for the second.

Going from `Cc1noc(C)c1CSCC(=O)Nc1nc(-c2ccc(F)c(F)c2)cs1` to `CC(=O)C(C)n1cnc2scc(-c3ccc(C)cc3)c2c1=O` (stereo not shown), the “hERG current change (%, negative = inhibition) at 1uM” value rises from -3.35% to 13.1%.

Compared with `CCOCCCNC(=O)C(c1ccc(OC)cc1)N(Cc1ccc2c(c1)OCO2)C(=O)c1ccccc1O` (stereo not shown), `COc1ccc(C(C(=O)NCC2CCCO2)N(C(=O)Cn2nnc3ccccc32)c2ccc(NC(C)=O)cc2)c(OC)c1` (stereo not shown) is higher in “hERG current change (%, negative = inhibition) at 1uM” value: 9.72% for the first, 12.6% for the second.

Going from `CCn1cc(C(=O)NCCC(=O)NCCO)c(=O)c2cc3c(cc21)OCO3` to `CCCCc1cc(=O)oc2c(CN(CC)CC)c(O)c(Cl)cc12`, the “hERG current change (%, negative = inhibition) at 1uM” value falls from 17.4% to -10.1%.

First: O=C(Nc1ccc2c(c1)nc1n2CCSC1)c1ccco1
Second: O=C(Cc1ccc([N+](=O)[O-])cc1)Nc1ccc(O)cc1C(=O)O
The “hERG current change (%, negative = inhibition) at 1uM” value of the first is higher: 9.88% for the first, 6.82% for the second.

Compared with `CCOC(=O)N1CCN(C(=O)CSc2nnc(C3COc4ccccc4O3)o2)CC1` (stereo not shown), `CCN(Cc1ccncc1)C(=O)c1ccc(C)o1` is higher in “hERG current change (%, negative = inhibition) at 1uM” value: 2.78% for the first, 9.86% for the second.

Compared with `CCCC[n+]1cc(/N=C(\[O-])OC)on1`, `CC(C)CCn1c(NCCN(C)C)nc2c1c(=O)[nH]c(=O)n2C` is lower in “hERG current change (%, negative = inhibition) at 1uM” value: 12.5% for the first, -12.7% for the second.

Compared with `CC(C)c1ccc(N2CC(C(=O)Nc3nccs3)CC2=O)cc1` (stereo not shown), `Cn1c(=O)c(=O)n(C)c2cc(N3CCCC3)c(NS(=O)(=O)c3ccc(F)cc3)cc21` is lower in “hERG current change (%, negative = inhibition) at 1uM” value: -3.96% for the first, -7.01% for the second.

In the case of `Cc1cc(Nc2ccc(N(C)C)cc2)n2ncnc2n1`, the “hERG current change (%, negative = inhibition) at 1uM” value is reported as 15.9%.
